# From the supplement of paper PMC12217912
# The other results are listed elsewhere or left out. The full chains were built here from the parent and the listed change. Inactive controls read about 0.05.
# B1: TEV protease; numbered along this chain (parent)
# chain: MGESLFKGPRDYNPISSSICHLTNESDGHTTSLYGIGFGPFIITNKHLFRRNNGTLVVQSLHGVFKVKDTTTLQQHLVDGRDMIIIRMPKDFPPFPQKLKFREPQREERICLVTTNFQTKSMSSMVSDTSCTFPSGDGIFWKHWIQTKDGQCGSPLVSTRDGFIVGIHSASNFTNTNNYFTSVPKNFMELLTNQEAQQWVSGWRLNADSVLWGGHKVFMVKPEEPFQPVKEATQL
# Variants of: B1
# Test: raw area under fraction-flipped curve 0-4 h after induction (AUC4h, not background-subtracted), DNA-recorder readout of cleavage of the substrate (dimensionless); higher = more cleavage of the substrate by the protease variant
# Details: temperature: 34 °C; time window: 0-4 h after rhamnose induction
# Procedure: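 In vivo DNA recorder in E. coli TOP10(DE3) ΔrhaA at 34 °C. Each TEVp single-site mutant (parent TEVp 0) is paired with a single-site variant of the 7-mer TEVs (canonical ENLYFQ|S). The substrate sits between flexible linkers in a Bxb1-sfGFP-TEVs-SsrA fusion, so cleavage stabilises Bxb1 and speeds flipping of a recombination array, read by NGS. The value is the raw area under the fraction-flipped curve over 0-4 h after rhamnose induction (AUC4h), with ≥20 reads per time point. It is not background-subtracted; inactive controls average about 0.047.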
# 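Also: Bxb1 expression induced with 0.2% (w/v) L-rhamnose at OD600 near 0.5, cultures sampled hourly, flipped fraction per protease–substrate barcode pair counted by paired-end Illumina sequencing.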
Variant,area with substrate ENLYFCS,area with substrate ENLYFDS,area with substrate ENLYFES,area with substrate ENLYFFS,area with substrate ENLYFGS,area with substrate ENLYFHS,area with substrate ENLYFIS,area with substrate ENLYFKS,area with substrate ENLYFLS,area with substrate ENLYFMS,area with substrate ENLYFNS,area with substrate ENLYFPS,area with substrate ENLYFRS,area with substrate ENLYFSS,area with substrate ENLYFTS,area with substrate ENLYFWS,area with substrate ENLYFYS,area with substrate ENLYFAS,area with substrate ENLYFVS
I43E,0.0428,0.0477,0.0409,0.0553,0.0392,0.02,0.0467,0.0448,0.0175,0.0454,0.0505,0.0485,0.0514,0.0451,0.0413,0.039,0.0481,,
K230N,0.0554,,,0.0716,,0.0551,0.0655,0.0641,0.06,0.061,,0.064,0.0569,0.0739,0.0488,0.0499,0.0582,0.0652,
K230C,0.0676,,0.0682,0.0692,,0.0559,0.0547,0.0512,,0.079,0.0646,0.0684,0.0361,0.0717,0.0569,0.0474,,0.0604,0.0656
T132I,0.0461,0.0673,0.0626,0.0607,0.0752,0.0627,,0.0577,,0.0641,0.0616,0.0696,0.0544,0.0419,0.0579,0.0522,,,
G54Q,0.0447,0.0537,0.0556,0.067,0.0545,0.0549,0.0543,,0.0652,0.0572,0.0564,0.0639,0.0556,0.0667,0.0594,0.058,0.0621,,0.0586
L156H,0.0519,0.0588,0.0552,0.0766,0.049,0.055,0.0616,0.0823,0.0394,0.0483,0.0538,0.0519,0.0555,0.0595,0.0569,0.0497,0.0474,,0.0585
F92C,0.0634,0.0472,0.0605,0.0602,0.0562,0.0329,0.0629,0.0607,0.0732,0.0741,0.0474,0.0592,0.0486,0.0526,0.0596,0.0652,0.0552,,0.0658
I110T,0.0594,0.0549,0.0606,0.0599,0.0585,0.0584,0.0601,0.0634,0.058,0.0558,0.0623,0.067,0.0532,0.0629,0.0541,0.0453,,,
T31A,0.0544,0.0526,0.0724,0.0677,,0.0546,0.0591,0.058,0.0636,0.067,0.0627,0.0692,0.0402,,0.0597,,,,0.0551
S154W,0.0326,,0.0576,,0.0559,0.066,0.0473,0.0628,0.0432,0.0386,0.0669,0.0666,,,0.0451,0.056,,,0.0501
S127G,0.048,0.0611,0.0731,0.0701,0.0443,,0.0516,0.0623,0.0646,0.0495,0.0563,0.0596,0.0655,0.0478,0.054,0.0697,0.066,,0.0586
